# Experimental data taken from PubChem BioAssay AID1345082 (National Center for Advancing Translational Sciences (NCATS), 2018).
# Values joined by “and” are separate entries in the source; they are usually repeats but may differ in a detail not shown here. Identical values can stand only once. About 4,000 (4.3%) of roughly 94,000 compounds were called active. Inconclusive means that the source gave no clear call. Such entries were picked first, then a sample of the others. The call rests on the fitted dose curve; in most records, active means well fitted inhibition curve with a large enough effect; inconclusive means small, poorly fitted or top-dose-only effect; inactive means no such curve, though single readings can be large or run the other way. A potency beside an inconclusive call is a rough fit, not a confirmed value.
# Assay: Cytotoxic Profiling in NIH 3T3 Cell Line of Diverse Libraries Using Quantitative High-Throughput Screening; further: nearly all actives have a fitted effect of over 55% in size
# Conditions: NIH 3T3 viability, CellTiter-Glo ATP luminescence, 48-72 h; series mostly up to 96.7 µM
# Method in brief: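 Luminescent ATP readout (CellTiter-Glo, 10 min RT) after 48 or 72 hr compound exposure of NIH 3T3 cells seeded at 400 cells/well in 1536-well format; quantitative HTS.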
# Potency means the concentration at half of the fitted maximal effect; tags describe the fitted curve by direction and shape.
row,Structure (SMILES),Potency
1,CCOC(=O)N1CCC(=O)N(CCOC)C[C@H]2COc3cc(OC)ccc3[C@H]21,"inconclusive: 79.4 µM [inhibitor, partial curve, poor fit]"
2,CN(Cc1ccc(F)cc1)Cc1ccccc1OCC(O)CN1CCCCC1 (stereo unspecified),"inconclusive: 56.2 µM [inhibitor, partial curve, poor fit]"
3,Cc1cccc(-c2nc3ccc(C(=O)NCc4cccnc4)cc3o2)n1,"inconclusive: 89.1 µM [inhibitor, partial curve, poor fit]"
4,CCNC(=O)C1(CCO)CCN(Cc2ccccc2)C1 (stereo unspecified),inactive
5,CNC(=O)c1cc(-c2ccc(C(F)(F)F)cc2)nc2c1cnn2C,"inconclusive: 31.6 µM [inhibitor, partial curve]"
6,COc1cc(CNC(=O)c2nc3cccnc3n(CC(C)C)c2=O)cc(OC)c1,inactive
7,COc1ccc(F)cc1-c1cccc(C(=O)NCC(=O)NCc2cccs2)c1,"inconclusive: 35.5 µM [inhibitor, partial curve, poor fit]"
8,CC(C)CCNC(=O)c1cnc2c(c1)N(Cc1ccccc1)CCC2,active: 79.4 µM
9,Cc1noc(-c2cn(C3CCCN(C(=O)c4ccc(C)c(F)c4)C3)nn2)n1 (stereo unspecified),"inconclusive: 56.2 µM [inhibitor, partial curve, poor fit]"
10,CCCc1noc(-c2cccn3c(CNC(=O)c4ccc(OC)cc4)nnc23)n1,inactive
11,COCC(=O)NC1CCN(C(=O)c2ccc(-c3cccc(OC)c3)cc2)CC1,"inconclusive: 44.7 µM [inhibitor, partial curve, poor fit] and inconclusive: 50.1 µM [inhibitor, partial curve, poor fit]"
12,O=C(Nc1ccc(Cl)nc1)c1ccn2nccc2c1,inactive
13,COc1ccc(CC(=O)N2CCN(c3ccc4nnc(C)n4n3)CC2)cc1,"inconclusive: 50.1 µM [inhibitor, partial curve, poor fit]"
14,COc1ccc(CNC(=O)Cn2c(C)cc3nc4n(c(=O)c32)CCC4)cc1OC,inactive
15,COc1ccc(-c2cc(C(=O)NC3CCNCC3)c3c(C)nn(-c4ccccc4)c3n2)cc1,active: 7.08 µM
16,CN(CCCNC1CCC2(CCNCC2)CC1)c1ccccc1,"inconclusive: 56.2 µM [inhibitor, partial curve, poor fit]"
17,COc1ccc(CC(=O)NC2CCCN(c3cc(-c4ccc(OC)cc4)[nH]n3)C2)cc1 (stereo unspecified),inactive
18,COc1ccc(C(=O)N2CCC(Cc3nc(C4CC4)n[nH]3)C2)cc1 (stereo unspecified),"inconclusive: 50.1 µM [inhibitor, partial curve, poor fit]"
19,c1ccc(C2CNC2)nc1,"inconclusive: 112 µM [inhibitor, partial curve, poor fit]"
20,Cc1cccc(NC(=O)N2CC(Oc3ccccc3-c3nc(-c4ccccc4)no3)C2)c1,inactive
21,CCn1cc(S(=O)(=O)N2CCCN(S(=O)(=O)c3ccccc3)CCC(=O)NCC2)cn1,inactive
22,CC(C)C(=O)N1CCC(Oc2cccnc2)C1 (stereo unspecified),inactive

row,Structure (SMILES),Potency
1,COc1ccc(S(=O)(=O)N2C[C@@H](Oc3ccccc3)C[C@@H]2C(=O)N2CCOCC2)cc1,inactive
2,Cc1cn2nc(C(=O)N3CCSCC3)cc2c(N(C)Cc2ccccc2)n1,"inconclusive: 44.7 µM [inhibitor, partial curve, poor fit]"
3,Cc1cccc(S(=O)(=O)N(C)CC2CCOC2)c1 (stereo unspecified),inactive
4,O=C(NC1CCCC1)NC1CCCN(c2cc(N3CCCC3)ncn2)C1 (stereo unspecified),inactive
5,CN(Cc1ccccc1C(F)(F)F)C(=O)c1cccc(Cl)c1,"inconclusive: 100 µM [inhibitor, single point]"
6,CCOC(=O)c1cn(C2CN(C(=O)Cc3cccc(Cl)c3)C2)nn1,inactive
7,Cc1nnc2ccc(N3CCN(S(C)(=O)=O)CC3)nn12,inactive
8,O=C1NC(=O)C(CCC(=O)N2CCCN(Cc3ccccn3)CC2)N1 (stereo unspecified),"inconclusive: 56.2 µM [inhibitor, partial curve, poor fit]"
9,COC(=O)N1CCn2cc(C(=O)Nc3ccc(Cl)cc3Cl)nc2C1,"inconclusive: 44.7 µM [inhibitor, partial curve]"
10,Cc1nc(C(C)C)sc1C(=O)N1CCC(Cc2ccc(C(=O)O)cc2)C1 (stereo unspecified),"inconclusive: 20 µM [inhibitor, full curve, poor fit]"
11,CCn1nccc1C(=O)N1CCC2(CC1)CC(N(Cc1ccc(F)cc1)C1CC1)CCO2 (stereo unspecified),"inconclusive: 44.7 µM [inhibitor, partial curve, poor fit]"
12,Cn1ncc2c(C(=O)NCC(=O)c3ccccc3)cc(-c3ccc(F)cc3)nc21,"inconclusive: 56.2 µM [inhibitor, partial curve, poor fit]"
13,CC(C)Cc1cc(C(=O)N2CCN(CCOc3ccccc3)CC2)on1,"inconclusive: 44.7 µM [inhibitor, partial curve, poor fit]"
14,CC1(c2cccnc2)N(Cc2ccccc2)C(=O)OC12CCN(C(=O)COc1ccccc1)CC2 (stereo unspecified),active: 31.6 µM
15,COc1ccc(-c2cc(-c3ccc(OC)c(OC)c3)cn3cncc23)cc1,active: 39.8 µM
16,Cc1nc(N2CCN(C(=O)c3ccc(C)s3)CC2)cc(C(F)(F)F)n1,"inconclusive: 44.7 µM [inhibitor, partial curve, poor fit]"
17,Cn1nccc1C(=O)N1CC(c2ncc3c(-c4cccc(C(F)(F)F)c4)nccn23)C1,"inconclusive: 100 µM [inhibitor, partial curve, poor fit]"
18,COCCN(Cc1cnc(-c2cccc(C)c2)nc1)Cc1cccs1,"inconclusive: 44.7 µM [inhibitor, partial curve]"
19,CC(=O)N1CCC(N2C(=O)c3c(c(C)nn3-c3ccccc3)C2C)CC1 (stereo unspecified),"inconclusive: 70.8 µM [inhibitor, single point]"
20,O=C(c1cccnc1)N1CCN(c2ccc3nnc(-c4ccccc4)n3n2)CC1,"inconclusive: 35.5 µM [inhibitor, partial curve, poor fit]"
21,O=S(=O)(c1ccc2c(c1)CCC2)N1CC(n2cnnc2C2CCOCC2)C1,inactive
22,O=C(CN1CCOC(c2ccc(F)cc2)C1)NCc1ccccn1 (stereo unspecified),inactive

row,Structure (SMILES),Potency
1,O=C(Cn1nc2c(cc1=O)CCCC2)NC1CCN(Cc2ccc(F)cc2)CC1,"inconclusive: 31.6 µM [inhibitor, single point]"
2,CCNC(=O)N1CCCC1c1noc(CCC(=O)N2CCN(c3ccccn3)CC2)n1 (stereo unspecified),inactive
3,COc1ccc2c(c1)c(CN1CCC3(CC1)CC(C(=O)N1CCOCC1)N(C)C3)cn2C (stereo unspecified),"inconclusive: 70.8 µM [inhibitor, partial curve, poor fit]"
4,O=C(NCC1CC1)c1ccc2nnc(Cc3ccc(Cl)cc3)n2c1,"inconclusive: 50.1 µM [inhibitor, partial curve, poor fit]"
5,Cc1ccc(C(=O)N2CCCCCNC(=O)[C@@H]3CCCC[C@@H]32)s1,"inconclusive: 70.8 µM [inhibitor, single point]"
6,COC(=O)C(NC(=O)N1CCC(c2cc(-c3cccc(OC)c3)n[nH]2)CC1)c1ccccc1 (stereo unspecified),"inconclusive: 44.7 µM [inhibitor, partial curve, poor fit]"
7,O=C(c1ccc(F)c(Cl)c1)N1CCCC2(C1)NC(=O)N(Cc1ccccc1)C2=O (stereo unspecified),"inconclusive: 50.1 µM [inhibitor, single point]"
8,Fc1ccc(C2Cn3nnc(-c4nc(-c5ccc(F)c(F)c5)no4)c3CO2)cc1 (stereo unspecified),inactive
9,Cc1noc(C)c1S(=O)(=O)N1CCC(C(=O)N2CCC(c3ccccc3)CC2)CC1,"inconclusive: 44.7 µM [inhibitor, partial curve, poor fit]"
10,CC(C)(C)c1nnc2n1C(C(=O)N1CCN(c3ncccn3)CC1)CC2 (stereo unspecified),inactive
11,CC(C)N1CCN(C2CCN(c3ccc4c(c3)CCC4)CC2)CC1CCO (stereo unspecified),"inconclusive: 35.5 µM [inhibitor, partial curve]"
12,COc1ccc(C(=O)Nc2ccc(-c3noc([C@@H]4CCCN4Cc4ccc(C(F)(F)F)cc4)n3)cn2)cc1,"inconclusive: 20 µM [inhibitor, full curve, poor fit]"
13,CC1=C[C@@H](CN2CCN(CCO)CC2)[C@H](C(C)C)C[C@H]1Cc1nnc(-c2ccc([N+](=O)[O-])cc2)o1,"inconclusive: 39.8 µM [inhibitor, partial curve, poor fit]"
14,COCCN(C)C[C@H]1C[C@@H](CO)CN(C(=O)Cc2ccc(C)c(C)c2)C1,inactive
15,O=C(Nc1cccc(Cl)c1)c1nc2sccn2c1-c1cccc(C(F)(F)F)c1,"inconclusive: 15.8 µM [inhibitor, full curve]"
16,CCC[C@@H]1CN(C(=O)c2cc(-c3cccs3)n(C)n2)C[C@H]1N(C)C,"inconclusive: 89.1 µM [inhibitor, single point]"
17,COc1ccc(CO[C@H]2COCCN(c3nc4ccccc4o3)C2)cc1,inactive
18,CC(C)(C)CC(=O)N1CCC2(CC1)C(=O)N(CC(=O)Nc1ccccc1)CN2c1ccccc1,"inconclusive: 50.1 µM [inhibitor, partial curve, poor fit]"
19,COc1ccc(CCNC(=O)c2nc3sccn3c2-c2cccc(C(F)(F)F)c2)cc1,inactive
20,COc1ccc(-c2cc(N3CCC(NC(=O)c4ccc(C)c(C)c4)CC3)n[nH]2)cc1,"inconclusive: 17.8 µM [inhibitor, full curve, poor fit]"
21,O=C1COCC2(CN(c3ccc(C(F)(F)F)cn3)C2)CN1c1ccc(F)cc1,"inconclusive: 100 µM [inhibitor, single point]"
22,Cc1ccc(C(=O)NC2CCN(Cc3cccc(-c4ccc(F)c(F)c4)c3)CC2)cc1,active: 35.5 µM
